# From the supplement of paper PMC12217912
# The list shows a part of the results. The full chains were built here from the parent and the listed change. Inactive controls read about 0.05.
# B1: TEV protease; numbered along this chain (parent)
# chain: MGESLFKGPRDYNPISSSICHLTNESDGHTTSLYGIGFGPFIITNKHLFRRNNGTLVVQSLHGVFKVKDTTTLQQHLVDGRDMIIIRMPKDFPPFPQKLKFREPQREERICLVTTNFQTKSMSSMVSDTSCTFPSGDGIFWKHWIQTKDGQCGSPLVSTRDGFIVGIHSASNFTNTNNYFTSVPKNFMELLTNQEAQQWVSGWRLNADSVLWGGHKVFMVKPEEPFQPVKEATQL
# Variants of: B1
# Assay: raw area under fraction-flipped curve 0-4 h after induction (AUC4h, not background-subtracted), DNA-recorder readout of cleavage of the substrate (dimensionless); higher = more cleavage of the substrate by the protease variant
# Settings: temperature: 34 °C; time window: 0-4 h after rhamnose induction
# 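Also: Bxb1 expression induced with 0.2% (w/v) L-rhamnose at OD600 near 0.5, cultures sampled hourly, flipped fraction per protease–substrate barcode pair counted by paired-end Illumina sequencing.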
Variant,area with substrate ENCYFQS,area with substrate ENFYFQS,area with substrate ENKYFQS,area with substrate ENNYFQS,area with substrate ENQYFQS,area with substrate ENSYFQS,area with substrate ENVYFQS,area with substrate ENWYFQS,area with substrate ENDYFQS,area with substrate ENEYFQS,area with substrate ENGYFQS,area with substrate ENMYFQS,area with substrate ENPYFQS,area with substrate ENRYFQS,area with substrate ENTYFQS,area with substrate ENYYFQS,area with substrate ENHYFQS,area with substrate ENIYFQS,area with substrate ENAYFQS
Y179E,0.0637,0.0614,0.0642,0.0691,0.0551,0.0661,0.0562,0,,,,,,,,,,,
K100Y,,0.0595,0.068,0.0534,0.0442,0.058,0.0825,0.0258,0.0354,0.059,0.0651,0.0845,0.0664,0.0615,0.0663,0.0382,,,
V113S,0.102,0.0546,,0.0629,0.0598,0.053,0.053,,0.0541,0.0741,,0.0548,,0.0648,0.0562,0.047,0.0461,0.0323,
C111H,0.0821,0.0816,0.0678,,0.0506,0.0497,0.094,,0.0544,0.0701,0.0536,,,0.0616,,,0.0618,,
D82H,0.0594,,0.0427,,0.0761,0.0577,0.0752,,0.0314,0.0526,0.0629,,0.0476,0.0572,,,0.0579,,
S158N,0.0697,0.0566,0.0502,,0.0581,0.0594,0.0741,,0.0647,0.0728,,,,,,,,,
R102M,0.0541,,0.0462,,0.0408,,0.0712,0.0716,0.056,0.0408,0.0471,,,0.049,0.0466,0.0521,0.0546,0.0629,
T233E,,,0.0861,0.068,0.0631,0.0573,,0.0541,0.0466,0.0558,0.0482,0.0798,0.0516,0.0555,,,,0.115,0.0444
T233M,0.0889,0.0461,0.0624,0.0594,0.0681,,,0.058,0.0498,0.068,0.0658,0.0641,0.0627,0.0654,,,0.0632,0.102,0.0546
T233Q,,,,0.0642,0.0573,0.0629,0.0898,,0.0644,,0.0638,,,,0.0677,0.0708,,0.0983,0.0597
T147M,0.0513,,0.072,0.0488,0.0553,,,0.047,0.0571,,,,,,0.0531,,0.0603,,
R106E,,0.0644,,0.0556,0.0707,0.0451,0.106,,0.0554,0.0634,0.0927,0.0895,0.0568,0.0509,0.0385,0.0718,0.0512,,
F41G,0.0485,0.038,0.0429,0.0558,0.0519,0.0672,0.0478,0.0403,,0.0453,0.0359,0.0724,0.0552,0.0474,0.045,0.0518,0.0519,0.0927,
V229Q,0.0746,,0.0706,0.0516,0.0669,0.0728,0.0901,,0.0623,,0.0516,0.104,0.0571,0.0836,0.0602,,0.0699,,0.064
V229E,0.0829,0.0686,,0.0677,0.0614,0.0611,,0.0555,0.0713,0.0615,0.0493,,0.0535,,0.0655,0.0678,,,0.062
E231V,,0.0515,0.066,0.0617,0.0493,0.0755,0.0761,,0.0498,0.0362,0.0642,,,0.0796,,0.0539,,0.107,0.07
E231N,0.0997,0.0691,,0.0303,0.0633,0.0572,0.104,0.0642,0.0611,0.0809,,,,0.0646,0.0431,,0.0671,,
R87H,0.0633,,0.0622,0.0532,0.0716,,0.0692,,,0.0434,0.0739,0.0665,0.066,0.0606,0.0767,0.0777,0.0648,,
E3C,,,,0.0498,0.0511,,0.0718,,0.0511,0.0547,,,0.0639,,0.0731,,,,
E3R,,,0.0595,0.0696,0.0701,0.0595,,,0.0643,,0.0542,,,,0.0561,,0.064,0.0992,
P89L,0.0299,,0.0676,,,0.0253,,0.0578,0.0463,,,,,0.034,0.0506,,0.0421,0.0706,
P89Y,0.0584,0.0353,0.0442,0.0581,0.0298,0.0484,,,0.0617,0.0603,0.0538,,0.0565,,0.0524,,0.0554,0.0925,
Q59K,,0.0775,,0.0501,,0.0563,0.0781,,0.0659,0.081,0.057,0.0697,,,0.0568,0.0631,0.0478,,
Q146V,0.0754,0.058,0.0754,0.0964,,0.0568,0.0775,,0.0467,,,,,0.0609,,,0.0379,0.101,
L99Q,0.072,,0.0533,0.0911,,,,,0.0571,,0.0542,0.0368,,,0.0609,,,,
F218N,0.0544,,0.0607,0.0548,0.0686,0.0514,,0.0578,0.0687,0.0615,,,,0.0575,0.0547,,,,
K98N,0.0613,0.0588,,,0.0625,0.0615,0.0768,0.0421,0.0612,0.0505,0.0526,0.0858,,0.0637,,0.0782,0.0632,0.12,
K98S,0.0754,,0.0421,0.0388,0.0643,,0.0692,,0.0647,0.0682,0.0527,0.0664,0.0464,0.063,0.0736,0.0607,0.105,0.104,
F95A,,0.0521,0.076,,0.0813,0.0696,0.0585,0.0542,0.0548,0.0552,0.0455,,0.0562,0.0601,0.0435,,0.0537,,
